According to the supplement of paper PMC7335073:
Over roughly 4,100 sequences, “relative CpG methylation activity (normalised to average over all NNNCGNNN flanks)” has its median near 0.87; the highest 2% begin near 2.4. The list shows a part of the results.

Molecular target: DNMT3A catalytic domain (mouse) (UniProt O88508)
Assay: relative CpG methylation activity (normalised to average over all NNNCGNNN flanks) (relative (1 = mean)); higher = more methylation of the central CpG
Conditions: system: in vitro, murine catalytic domain; CpG state: hemimethylated substrate pool; residues: 608-908
Procedure, shortened: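 Murine DNMT3A or DNMT3B catalytic domain methylated pooled dsDNA substrates, each carrying a central CpG within 10 random flanking nucleotides, with 0.8 mM S-adenosyl-L-methionine in HEPES pH 7.5 buffer at 37 °C for 60 min. Proteinase K treatment, BsaI-HFv2 digestion, hairpin ligation, bisulfite conversion and two-step PCR preceded Illumina sequencing. Relative methylation activity is the average methylation of a flanking context divided by the mean across all contexts, where a context spans three bases on each side, and every experiment was repeated twice independently.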

Sequence | relative CpG methylation activity
GCCCGGGT | 0.974
GCCCGATG | 0.508
TTACGAAC | 2.17
TGGCGTAG | 0.38
CATCGCGC | 0.69
CTGCGTCT | 1.56
TTACGTTG | 1.34
CAACGTAG | 0.467
ATACGACG | 1.73
TTCCGTGA | 1.14
GTCCGAAA | 1.72
GAACGGAA | 0.566
ATTCGCAC | 1.2
GTTCGAAC | 1.37
GGTCGTAT | 0.455
AGTCGAAG | 0.145
CTACGGGA | 1.38
ACGCGCCT | 2.02
GTGCGGGA | 1.07
AAGCGGTG | 0.221
TATCGTGG | 0.0549
GTACGTGT | 0.804
GCCCGTGT | 0.304
GCCCGTGA | 0.592
GTCCGAGA | 1.64

Sequence | relative CpG methylation activity
ACGCGCAG | 0.605
CTGCGTGT | 0.598
GCACGTCA | 1.86
AGCCGGCA | 0.812
ACGCGTGC | 0.46
AAGCGCCT | 1
AACCGCGG | 0.225
GAACGTGT | 0.152
TAACGCCT | 1.2
ATTCGCAG | 0.559
GGCCGGGG | 0.156
GGCCGGAC | 0.667
GTGCGCGT | 1.48
CGTCGCCA | 1.32
CCGCGGTT | 0.865
ACACGTTC | 2.03
ACTCGCCC | 1.86
TCACGGCC | 1.59
ATCCGATA | 1.7
ATGCGCGA | 1.17
TAACGGCC | 1.2
CCTCGGAT | 0.744
CATCGGTG | 0.467
GGTCGGCG | 0.341
GGTCGTAA | 0.82

Sequence | relative CpG methylation activity
CGTCGACT | 0.696
TGGCGCAT | 0.413
GGCCGCGT | 0.263
CGGCGACC | 0.275
TCACGACC | 1.45
ACGCGCTC | 1.83
CGACGGGT | 0.422
AAGCGCGT | 0.408
GGCCGACG | 1.06
ATTCGGAT | 0.53
CATCGTGA | 0.446
AATCGGTT | 0.205
TAGCGACC | 0.612
AGACGCTA | 0.996
ACCCGCTC | 1.88
TGGCGGTT | 0.673
CACCGCTG | 0.798
GCACGGCT | 1.48
CCCCGATG | 0.707
ATGCGGCG | 0.6
AATCGCCC | 1.37
CCGCGACA | 1.1
GCACGAAG | 0.983
TGTCGACC | 0.76
AGTCGCCG | 1.17

Sequence | relative CpG methylation activity
GGCCGTGG | 0.192
GGACGGCC | 1.01
CACCGGAG | 0.153
AAACGGTG | 0.476
TCTCGCAT | 1.22
ATTCGCGG | 0.183
GCGCGGCT | 1.25
CATCGTTC | 0.912
AGCCGCAC | 0.983
TTTCGGCG | 0.857
TAGCGTAA | 0.606
TTTCGGGA | 0.882
GAACGTAC | 0.722
TTCCGACA | 2.36
CAGCGACT | 0.576
CCACGGCC | 1.76
GAGCGTTG | 0.26
GGACGTGA | 0.354
GGCCGATG | 0.302
GTCCGGTC | 1.96
TTACGTAT | 1.48
TAGCGTTT | 0.45
CAGCGAGA | 0.503
CCACGTAC | 1.45
TCTCGGCG | 0.688

Sequence | relative CpG methylation activity
GAACGGAC | 1.07
CTCCGGTG | 1.08
CTACGCAC | 2.15
AGCCGGGG | 0.593
GTTCGCAG | 0.727
GAGCGGGC | 0.517
TACCGGAA | 0.592
TCACGTGA | 0.802
GTTCGTAT | 0.505
CGCCGAAT | 0.61
TTTCGTTA | 1.28
TGCCGCAC | 1.07
CCACGTCG | 1.7
TCGCGATG | 0.614
AGGCGAGA | 0.545
CTACGATT | 1.89
GCTCGTCC | 1.85
GGGCGTCT | 1.3
ATACGGCT | 1.74
ATCCGGCC | 1.49
CAACGCCA | 1.14
ATACGAGC | 2.39
AGCCGCCG | 0.986
TATCGCAT | 0.632
AGCCGAGG | 0.227

Sequence | relative CpG methylation activity
CGACGCTA | 0.737
CGCCGGTT | 0.367
TCTCGAGA | 0.833
GTACGAGA | 1.45
CACCGATT | 0.784
ATACGTGT | 0.724
CCTCGAGT | 0.92
CTGCGTGA | 0.75
GGGCGGCG | 0.625
GGACGATC | 0.878
TAACGGGC | 1.18
TCTCGGTG | 0.645
AAGCGGTA | 0.377
ACGCGAGG | 0.63
CAGCGTGA | 0.0962
ATTCGACG | 0.74
TTACGTTA | 2.55
GAACGAGT | 0.576
AGTCGACT | 0.424
GCGCGCGA | 1.04
ACTCGTCC | 1.54
GATCGTGC | 0.14
CTTCGAAG | 0.625
TGACGACA | 1.01
CCCCGGCC | 1.55

Sequence | relative CpG methylation activity
AGGCGCGT | 0.449
GTACGATC | 1.9
CTACGTAT | 1.54
GCGCGATT | 0.714
ATTCGCCT | 2
TCTCGTCC | 1.43
GAGCGTCC | 1.08
CAACGCCC | 1.52
GGGCGCAG | 0.347
CTCCGTGC | 0.671
TATCGTTT | 0.739
TCGCGGTT | 0.563
TGCCGGGC | 0.764
TGCCGCTT | 1.45
CCACGCAC | 1.81
AACCGCAG | 0.436
AACCGAGG | 0.346
CCCCGCCG | 1.72
ACTCGACC | 1.26
TATCGGTG | 0.17
AATCGCGA | 0.352
AGACGGCA | 0.868
AAGCGGGC | 0.635
CCACGGGT | 1.19
TGTCGTAA | 0.629

Sequence | relative CpG methylation activity
TACCGAAT | 0.769
TTACGCCT | 2.38
GCGCGTTG | 0.402
CATCGGGC | 0.363
CGCCGACG | 0.849
CATCGATA | 0.563
TGACGTTC | 0.739
TTACGGAG | 1
CGACGGGG | 0.274
TCTCGGTA | 0.739
ACTCGCAT | 0.822
TGCCGTGG | 0.0833
GTGCGATT | 0.955
TGACGTGG | 0.122
AAACGCTG | 0.861
TCACGTTG | 0.702
GCTCGGAT | 0.804
CGTCGTTT | 0.632
GGACGGTT | 0.486
AGTCGGTC | 0.658
CTTCGAGA | 1.22
GCGCGCGT | 1.08
GTGCGCGA | 1.31
TATCGGGG | 0.29
CTTCGGAT | 0.781

Sequence | relative CpG methylation activity
AAACGTGC | 0.409
ACTCGCGT | 0.867
ATCCGACC | 1.88
TACCGAAC | 1.38
TGTCGTTT | 0.652
TTTCGGAC | 1.23
CACCGGGC | 0.89
TGGCGACT | 0.737
AGCCGGAG | 0.227
TCACGTAT | 1.25
ACACGCGT | 1.25
CGGCGCTT | 1.54
CAACGTTT | 0.628
ATCCGAGA | 1.6
TAGCGCTT | 0.818
TAACGTTA | 0.654
TCGCGCGA | 0.745
ACCCGGTT | 0.844
GCCCGTAG | 0.719
GGGCGACA | 0.645
GCGCGAGA | 0.455
CGGCGCAA | 0.604
GAGCGAAG | 0.348
CGACGATC | 0.899
ATTCGAGG | 0.743

Sequence | relative CpG methylation activity
GAGCGTAG | 0.34
GCGCGGGC | 0.915
AGCCGTCA | 1.05
GGTCGCAG | 0.167
CCACGAGC | 2.13
GATCGGGC | 0.225
TCGCGGCG | 0.676
ACGCGCGC | 1.12
ATCCGAAT | 1.06
GCACGAGG | 0.755
GGGCGATG | 0.662
GCTCGTAC | 0.86
CGTCGTCA | 0.704
CTGCGAAC | 1.7
GCACGTAA | 1.66
ATCCGCAG | 1.01
TAACGTGT | 0.503
TAGCGCGG | 0.0538
TGACGCGC | 0.749
CCCCGCAC | 1.55
GACCGTGG | 0.101
GATCGTGA | 0.286
CCACGTCA | 1.71
GGGCGAAG | 0.523
AAACGCCT | 1.45

Sequence | relative CpG methylation activity
TGGCGGTC | 0.536
ACGCGATT | 0.863
CGTCGTAG | 0.312
GGACGTAA | 1.02
AGGCGCTT | 1.19
CATCGCTA | 0.886
GCTCGTCA | 1.5
GCGCGCTT | 1.52
CCACGATG | 0.724
GTGCGGTA | 1
CTGCGCCA | 2
TCACGGGA | 1
CATCGCAA | 0.819
ACACGACT | 1.48
GGACGACG | 0.584
CTACGCGA | 1.97
TTCCGTTA | 1.63
AAGCGAGC | 0.914
TTGCGGCC | 1.4
CCACGCAG | 0.809
ATGCGATC | 2.09
TCGCGGCA | 0.811
CGGCGAAT | 0.409
AAACGTTC | 0.696
GGACGACC | 0.541

Sequence | relative CpG methylation activity
CCGCGACC | 1.31
CACCGCCT | 2.05
ATGCGATA | 1.27
ATACGCCT | 2.76
ATGCGAGG | 1.14
AATCGTAA | 0.534
GTCCGACG | 1.59
ATACGGGT | 1.42
CAACGAGT | 0.788
ATGCGCTG | 1.96
CATCGTTG | 0.208
ACACGCAT | 1.53
TCCCGGCG | 0.385
GAACGGCC | 1.34
ATGCGTTC | 1.5
CAGCGGCG | 0.514
CGCCGCAA | 0.839
GGGCGCTG | 1.55
ATTCGGAA | 0.353
ATTCGGGG | 0.25
TAACGCAC | 0.937
CGCCGTGT | 0.187
CTACGCGG | 0.702
ACTCGGTG | 0.33
ACACGGAG | 0.745

Sequence | relative CpG methylation activity
GTTCGTTC | 1.53
TCGCGACA | 1.09
GTTCGCTA | 1.15
TCCCGTAC | 0.784
TAGCGTAC | 0.434
CTGCGGTT | 1.22
TCGCGCGC | 0.817
TCGCGAGA | 0.575
GTTCGGAG | 0.25
CGTCGTGT | 0.338
ACGCGCCA | 1.48
TTGCGCTT | 2.22
GTTCGTTG | 0.427
CGACGGTG | 0.333
TGTCGAAC | 0.773
AGTCGGAA | 0.497
TGGCGAAC | 0.788
CTACGATA | 1.67
TGTCGCGC | 0.58
CAACGCGG | 0.31
GTACGAGG | 0.909
AGGCGAGT | 0.529
CTGCGATT | 1.09
CGACGGTC | 0.969
TCGCGTTA | 0.929

Sequence | relative CpG methylation activity
GGGCGTAA | 0.636
ACTCGACT | 0.791
CAACGTAA | 1.1
GCTCGGCT | 0.732
ATACGTAC | 1.88
CGACGTTT | 0.19
TTTCGTGC | 0.815
GTACGTCG | 1.85
TTCCGAGG | 1.51
TCGCGTCG | 1.35
CTTCGCAA | 1.52
ATCCGTAT | 0.922
TGGCGAGA | 0.521
GGGCGAGC | 1.52
AGGCGCAG | 0.331
GAGCGCAT | 0.683
GACCGCTA | 0.986
ATACGGTC | 2.39
AAGCGAGG | 0.24
